Measured values published in ChEMBL document CHEMBL4888484, “Replenishing the malaria drug discovery pipeline: Screening and hit evaluation of the MMV Hit Generation Library 1 (HGL1) against asexual blood stage Plasmodium falciparum ,using a nano luciferase reporter read-out” (2022).
Among all 150,000 compounds or so, about 540 (0.36%) showed an effect of 50% or more. This is one part of the list.

test system: Plasmodium falciparum; test: Primary screen in NF54 nanoGlo assay, in single point, at 2uM, 72h; a lower Z score goes with more inhibition; format: functional, Erythrocyte; conditions: timepoint 72 hour

With `Cc1ccccc1NC(=O)CN1CCN(Cc2ccccc2)S1(=O)=O` as the compound, how does the “% Inhibition” value read?
Its value is -18%.

What about the Z score of the same compound?
Its Z score is 1.6.

`c1ccc(CCc2noc(-c3ccnc4ccncc34)n2)cc1` was tested. Which “% Inhibition” value did it give?
The value was 10%.

What about the Z score of the same compound?
The Z score was -0.89.

For `COc1csc(C(=O)NCc2noc(-c3ccsc3)n2)c1`, which “% Inhibition” value is on record?
Its value is -13%.

And the Z score?
The Z score was 1.33.

Which results are given for `Cc1cc(-c2ccncc2)cnc1-n1cnnc1`?
% Inhibition: -14%; Z score: 1.82

For `Cc1cc(CN2C[C@@H]3CC[C@H]2CN(Cc2c(C)noc2C)C3)ccc1F`, which “% Inhibition” value is on record?
The value was -17%.

What about the Z score of the same compound?
Its Z score is 3.36.

Which results are given for `CCOC(=O)N1CCC(Nc2nc(-c3ccc4c(c3)OCCO4)cs2)CC1`?
% Inhibition: 1%; Z score: -0.13

Which results are given for `CC1(C)[C@@H]2CCC13CS(=O)(=O)N(Cc1cnc4ccccc4c1)[C@H]3C2`?
% Inhibition: -5%; Z score: 0.89

With `O=C(CC1CCC(F)(F)CC1)NCc1cccc2occc12` as the compound, how does the “% Inhibition” value read?
Its value is -4%.

What about the Z score of the same compound?
The Z score was 0.65.

With `CN(C(=O)NC1CCCCCC1)C1CCC1` as the compound, how does the “% Inhibition” value read?
Its value is -4%.

What about the Z score of the same compound?
The Z score was 0.51.

Which results are given for `Cc1csc(N(C)C(=O)c2cc(N3CC(C)OC(C)C3)ccn2)n1` (stereo unspecified)?
% Inhibition: -5%; Z score: 0.89

`Cc1ccc(OCCN)c(C(=O)NCc2cc3ccccc3s2)c1` was tested. Which “% Inhibition” value did it give?
The value was 2%.

What about the Z score of the same compound?
The Z score was -0.31.

For `CCOc1cc(C(=O)N2CC(S(=O)(=O)CC(C)C)C2)cc(OCC)c1OCC`, which “% Inhibition” value is on record?
The value was -8%.

What about the Z score of the same compound?
The Z score was 1.04.

Which “% Inhibition” value does the source give for `c1ccc(CCCN2CCCN(Cc3cnn4cccnc34)CC2)cc1` here?
Its value is 5%.

What about the Z score of the same compound?
The Z score was -0.75.

What does the source list for `CCC1CN(C(=O)NCc2cc(OC)no2)CC(C)O1` (stereo unspecified)?
% Inhibition: -11%; Z score: 2.2

With `Cc1cc(N(C)C)ccc1CN[C@@H](C)CCn1cccn1` as the compound, how does the “% Inhibition” value read?
The value was 1%.

What about the Z score of the same compound?
The Z score was -0.15.

For `O=C(COc1ccccc1Cl)NC(=O)Nc1cccc(C(F)(F)F)c1`, which “% Inhibition” value is on record?
The value was 1%.

What about the Z score of the same compound?
The Z score was -0.14.

With `O=C(Nc1cnccc1O)c1ccccc1C(=O)c1ccc(Br)cc1` as the compound, how does the “% Inhibition” value read?
The value was -8%.

What about the Z score of the same compound?
The Z score was 1.14.

Which “% Inhibition” value does the source give for `CCc1cc(C(=O)NCc2ccc(C)cc2)nc2ccnn12` here?
The value was 5%.

And the Z score?
The Z score was -0.81.

For `CCOC1CC(CO)(NC(=O)c2ccc(C(C)C)nc2)C1(C)C` (stereo unspecified), which “% Inhibition” value is on record?
Its value is 8%.

And the Z score?
Its Z score is -1.51.

With `Cc1ccc(S(=O)(=O)N2CCN(C(=O)CCn3ccc4ccccc43)CC2)cc1` as the compound, how does the “% Inhibition” value read?
Its value is -3%.

What about the Z score of the same compound?
Its Z score is 0.58.

For `Cc1cc(C)n2ncc(-c3noc([C@H](C)OCC4CC4)n3)c2n1`, which “% Inhibition” value is on record?
Its value is -10%.

And the Z score?
The Z score was 1.37.

What does the source list for `O=C(NCC(F)(F)C(F)F)[C@H]1COCC(=O)N1Cc1ccccc1`?
% Inhibition: -26%; Z score: 3.03

For `CCCCN(C)c1ncc(Cl)c(C(=O)NCCNS(=O)(=O)CC)n1`, which “% Inhibition” value is on record?
The value was -6%.

What about the Z score of the same compound?
Its Z score is 0.78.

What does the source list for `C[C@H]1CCS(=O)(=O)CCN1C(=O)NCC(C)(C)C1CCCCC1`?
% Inhibition: 0%; Z score: 0.04

`CC(=O)c1cc(-c2ccccc2CN2CCOCC2)ccc1O` was tested. Which “% Inhibition” value did it give?
Its value is -8%.

And the Z score?
Its Z score is 1.4.

Which results are given for `O=C(CCc1ccccc1)N1CCC[C@H]1c1ccc[nH]1`?
% Inhibition: -16%; Z score: 1.61

`Cc1cc(C(=O)NC2(CCO)CCN(C)CC2)oc1Br` was tested. Which “% Inhibition” value did it give?
The value was -2%.

What about the Z score of the same compound?
Its Z score is 0.36.

`Cc1cc(CS(=O)(=O)N(C(C)C)C2COC2)on1` was tested. Which “% Inhibition” value did it give?
Its value is -13%.

And the Z score?
Its Z score is 1.91.

Which “% Inhibition” value does the source give for `CC(C)Cc1noc(CN(C)C2CCN(Cc3ccccc3)CC2)n1` here?
The value was 0%.

And the Z score?
The Z score was -0.05.

`COc1cccc(NC(=O)CN2C[C@H](CCN3CCCC3=O)c3ccccc32)c1` was tested. Which “% Inhibition” value did it give?
Its value is -4%.

What about the Z score of the same compound?
The Z score was 0.83.

Which results are given for `CCN(CC)c1ccc(C(=O)Oc2ccc(NC(C)=O)cc2)cn1`?
% Inhibition: 0%; Z score: -0.06

How did the “% Inhibition” value turn out when `CC(C)N(CC1CCC1)C(=O)NCc1ccc(C(N)=O)o1` was run?
The value was -5%.

What about the Z score of the same compound?
Its Z score is 0.97.

Which “% Inhibition” value does the source give for `CC(C)Cc1cc(CNC(=O)c2cc(CC(C)C)nc(N)n2)on1` here?
Its value is 17%.

What about the Z score of the same compound?
The Z score was -2.23.

`CCCS(=O)(=O)N(CCOC)CC(=O)N(Cc1ccc(Cl)cc1)C1CCN(C(=O)c2ccccc2F)CC1` was tested. Which “% Inhibition” value did it give?
Its value is -23%.

And the Z score?
Its Z score is 3.08.

What does the source list for `CC1(C)CC(=S)C=C(N2CCCCC2)C1`?
% Inhibition: -7%; Z score: 1.08

Which results are given for `COc1ccc(-n2c(Cn3ccnc3)n[nH]c2=O)c(C)c1`?
% Inhibition: -7%; Z score: 0.95

Which results are given for `CN(CC(=O)N1CCOCC1)C1CCCCC1`?
% Inhibition: -1%; Z score: 0.13

With `CCC1(CC)C(NC(=O)Nc2c[nH]c(=O)c(C)c2)C(C)C1OC` (stereo unspecified) as the compound, how does the “% Inhibition” value read?
The value was 1%.

And the Z score?
Its Z score is -0.08.

What does the source list for `COc1cccc(OCCN2CC[C@H](c3cccc(OC)c3OC)C2)c1`?
% Inhibition: 0%; Z score: 0

With `CC(C)(C)c1noc(CNC(=O)CCc2cn[nH]c2)n1` as the compound, how does the “% Inhibition” value read?
Its value is -16%.

And the Z score?
The Z score was 3.08.

For `c1ccc2ncc(CO[C@H]3CCCc4c[nH]nc43)cc2c1`, which “% Inhibition” value is on record?
Its value is -13%.

And the Z score?
The Z score was 2.26.

How did the “% Inhibition” value turn out when `CCn1ncc(C(=O)N[C@@H]2C[C@H]3OCC[C@@H]23)c1C` was run?
The value was 0%.

And the Z score?
Its Z score is 0.04.

`COc1ccc(-c2cc3n(n2)C[C@@](C)(C(=O)NCc2ccccc2OC)N(c2cc(C)cc(C)c2)C3=O)cc1` was tested. Which “% Inhibition” value did it give?
The value was 9%.

What about the Z score of the same compound?
Its Z score is -1.43.
